For the assay, the target named is T1, CXCR4-Rluc8 (human, UniProt P61073 1-352).
T1 construct: C-X-C chemokine receptor type 4 (CXCR4), human cDNA from the Missouri S&T cDNA Resource Center; source: HEK293A, transiently transfected, in cells; not shown: Rluc8, C-terminal, kept
In words: FRET or BRET; quantitative BRET saturation in HEK293A cells: fixed amount of Rluc8-tagged donor, increasing amounts of mCit-tagged acceptor, coelenterazine h 5 µM; no ligand, no further receptor coexpressed. As to conditions: partners not purified. Background: In BRET a luciferase serves as donor, and the signal depends on an acceptor being close.

T1 sequence (P61073 whole entry): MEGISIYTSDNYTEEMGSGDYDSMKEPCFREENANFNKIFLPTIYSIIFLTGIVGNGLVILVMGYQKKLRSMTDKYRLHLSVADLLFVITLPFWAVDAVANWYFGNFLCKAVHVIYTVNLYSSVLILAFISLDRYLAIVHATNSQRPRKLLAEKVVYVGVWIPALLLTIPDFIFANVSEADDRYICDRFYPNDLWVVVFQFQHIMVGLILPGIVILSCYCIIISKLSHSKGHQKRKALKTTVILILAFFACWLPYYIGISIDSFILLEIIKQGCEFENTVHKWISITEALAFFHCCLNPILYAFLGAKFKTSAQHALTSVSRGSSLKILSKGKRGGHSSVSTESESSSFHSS

B1: S1P1-mCit (receptor, human, UniProt P21453 1-382, looked up)
chain: MGPTSVPLVKAHRSSVSDYVNYDIIVRHYNYTGKLNISADKENSIKLTSVVFILICCFIILENIFVLLTIWKTKKFHRPMYYFIGNLALSDLLAGVAYTANLLLSGATTYKLTPAQWFLREGSMFVALSASVFSLLAIAIERYITMLKMKLHNGSNNFRLFLLISACWVISLILGGLPIMGWNCISALSSCSTVLPLYHKHYILFCTTVFTLLLLSIVILYCRIYSLVRTRSRRLTFRKNISKASRSSEKSLALLKTVIIVLSVFIACWAPLFILLLLDVGCKVKTCDILFRAEYFLVLAVLNSGTNPIIYTLTNKEMRRAFIRIMSCCKCPSGDSAGKFKRPIIAGMEFSRSKSDNSSHPQKDEGDNPETIMSSGNVNSSS
notes: sphingosine-1-phosphate receptor type 1 (S1P1), human cDNA S1PR1 from the Missouri S&T cDNA Resource Center; also called mCit-tagged S1P1; source: HEK293A, transiently transfected, in cells; not shown: mCitrine (mCit), C-terminal, kept
In the case of B1, the BRET50 turned out to be 5.17 ± 0.338.

B2: S1P3-mCit (receptor, human, UniProt Q99500 1-378, looked up)
chain: MATALPPRLQPVRGNETLREHYQYVGKLAGRLKEASEGSTLTTVLFLVICSFIVLENLMVLIAIWKNNKFHNRMYFFIGNLALCDLLAGIAYKVNILMSGKKTFSLSPTVWFLREGSMFVALGASTCSLLAIAIERHLTMIKMRPYDANKRHRVFLLIGMCWLIAFTLGALPILGWNCLHNLPDCSTILPLYSKKYIAFCISIFTAILVTIVILYARIYFLVKSSSRKVANHNNSERSMALLRTVVIVVSVFIACWSPLFILFLIDVACRVQACPILFKAQWFIVLAVLNSAMNPVIYTLASKEMRRAFFRLVCNCLVRGRGARASPIQPALDPSRSKSSSSNNSSHSPKVKEDLPHTAPSSCIMDKNAALQNGIFCN
notes: sphingosine-1-phosphate receptor type 3 (S1P3), human cDNA S1PR3 from the Missouri S&T cDNA Resource Center; also called mCit-tagged S1P3; source: HEK293A, transiently transfected, in cells; not shown: mCitrine (mCit), C-terminal, kept
The molecule B2 gave a BRET50 of 6.47 ± 0.377.
